Consider two molecules from patent US20170342119A1 (ALTOR BIOSCIENCE, published 2017).

This test addresses T1, IL-15 βγ receptors on 32Dβ cells (UniProt P14784 27-551; P34902 23-369).
T1 sequence (looked up) 1: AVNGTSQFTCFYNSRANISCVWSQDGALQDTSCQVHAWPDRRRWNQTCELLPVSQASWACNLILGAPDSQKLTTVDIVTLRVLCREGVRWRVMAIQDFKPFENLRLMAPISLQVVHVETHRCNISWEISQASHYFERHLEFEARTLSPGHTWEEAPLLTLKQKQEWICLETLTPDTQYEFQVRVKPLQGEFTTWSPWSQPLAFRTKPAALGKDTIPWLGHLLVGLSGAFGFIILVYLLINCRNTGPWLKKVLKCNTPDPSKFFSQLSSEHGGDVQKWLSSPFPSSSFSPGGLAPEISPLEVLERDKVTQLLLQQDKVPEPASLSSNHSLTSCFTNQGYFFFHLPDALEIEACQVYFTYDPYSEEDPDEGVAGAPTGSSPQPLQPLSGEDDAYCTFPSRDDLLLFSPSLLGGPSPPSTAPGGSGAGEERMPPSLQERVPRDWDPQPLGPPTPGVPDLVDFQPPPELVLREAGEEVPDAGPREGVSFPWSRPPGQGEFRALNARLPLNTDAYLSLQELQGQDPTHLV
T1 sequence (looked up) 2: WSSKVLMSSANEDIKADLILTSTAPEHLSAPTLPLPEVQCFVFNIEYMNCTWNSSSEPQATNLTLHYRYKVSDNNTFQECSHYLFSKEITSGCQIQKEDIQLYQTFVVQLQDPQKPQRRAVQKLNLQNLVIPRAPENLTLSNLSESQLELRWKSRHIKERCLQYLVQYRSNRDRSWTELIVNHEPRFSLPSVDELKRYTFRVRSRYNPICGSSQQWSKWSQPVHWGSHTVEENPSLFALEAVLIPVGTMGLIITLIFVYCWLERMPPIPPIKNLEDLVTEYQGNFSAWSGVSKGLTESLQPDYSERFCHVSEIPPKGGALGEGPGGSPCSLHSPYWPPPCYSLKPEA
In words: cell-based or functional assay.

B1: ALT-803 (IL-15N72D:IL-15RαSuFc complex) (Fc fusion)
chain 1: [about 120 residues omitted]
chain 2: ITCPPPMSVEHADIWVKSYSLYSRERYICNSGFKRKAGTSSLTECVLNKATNVAHWTTPSLKCIR[human IgG1 Fc omitted]
Take B1: the “32Dβ cell proliferation (WST-1), EC50” value was determined as 14 pM.

B2: soluble anti-CD20 scAb/huIL-15N72D:anti-CD20 scAb/huIL-15RαSu/huIgG1 Fc complex (Fc fusion)
chain 1: QIVLSQSPAILSASPGEKVTMTCRASSSVSYIHWFQQKPGSSPKPWIYATSNLASGVPVRFSGSGSGTSYSLTISRVEAEDAATYYCQQWTSNPPTFGGGTKLEIKSGGGGSGGGGSGGGGSQVQLQQPGAELVKPGASVKMSCKASGYTFTSYNMHWVKQTPGRGLEWIGAIYPGNGDTSYNQKFKGKATLTADKSSSTAYMQLSSLTSEDSAVYYCARSTYYGGDWYFNVWGAGTTVTVSA[about 120 residues omitted]
chain 2: QIVLSQSPAILSASPGEKVTMTCRASSSVSYIHWFQQKPGSSPKPWIYATSNLASGVPVRFSGSGSGTSYSLTISRVEAEDAATYYCQQWTSNPPTFGGGTKLEIKSGGGGSGGGGSGGGGSQVQLQQPGAELVKPGASVKMSCKASGYTFTSYNMHWVKQTPGRGLEWIGAIYPGNGDTSYNQKFKGKATLTADKSSSTAYMQLSSLTSEDSAVYYCARSTYYGGDWYFNVWGAGTTVTVSAITCPPPMSVEHADIWVKSYSLYSRERYICNSGFKRKAGTSSLTECVLNKATNVAHWTTPSLKCIR[human IgG1 Fc omitted]
Turning to B2, the “32Dβ cell proliferation (WST-1), EC50” value worked out at 889 pM and the “relative IL-15 activity compared to ALT-803” value is approximately 60 fold.
